# In the supplement of paper PMC11417369:
# Some of the results follow.
# System: PfHDP1 homeodomain (GST-tagged)
# Assay: gcPBM binding intensity (ln(normalized median fluorescence intensity)); higher = stronger DNA binding
# Procedure, shortened: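 An Agilent 4 × 180k array carrying primer-extended double-stranded 36-bp intergenic genomic probes and negative controls received GST-tagged P. falciparum DNA-binding domains expressed in E. coli, about 25 μg on average, for 1 h. The binding buffer contained 1× PBS, 1% milk, 0.2 mg/ml BSA, 0.5% salmon testes DNA and 0.03% Triton X-100. Binding intensity is the top Masliner-normalised natural-log median intensity across replicate spots of either probe orientation, read after Alexa488 anti-GST antibody staining and a 488 nm scan.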
row,Sequence,gcPBM binding intensity (ln)
1,CCTTTAAGCAAAAACACACACACATATATATATATA [CACACA_site348],9.26
2,TCTTCCATTTTTATTACACACATAAATATGAAATCG [CACACA_site3471],6.78
3,ACATTTTTGGTTTTAGTGCAATATGAATTATTTTAT,9.92
4,TTATTTCTAATTCGTTGTACAATATATAATATATAT [XGTACX_site5861],6.85
5,TATCCATATTTGTTCACACACACACGGATTTATATA [CACACA_site7649],6.75
6,GGAATATTATTTCAATGTACATTTTGAGATTAGAAT [XGTACX_site8187],6.91
7,ATTATTATTTTACGTAGTACATATAATAAATATTTA [XGTACX_site8934],6.01
8,TAGGTGTTAAAAAATACACACACAAAAAAAAAAAAA [CACACA_site7927],6.36
9,TTGATAGACACATGCACACATGCAATACTTTATTCA [CACACA_site3000],8.85
10,TTAGATATTAATATATGTACATATTAATATATTTAC [XGTACX_site7119],6.1
11,CACACTTTTTAAATTAACGCATTTCAAAAAAAATAT [CACACA_negctrl_site84],6.21
12,TTTCTTTTTTAGAGGTGTACACGTAGGCCTCTTGGA [XGTACX_site4760],6.45
13,TATTTATACACGCACACACACTTATACATTTATATA [CACACA_site7543],8.4
14,TAAATGTAAAACGAAATGCACACTATGGAAAATATA [CACACA_site724],9.19
15,TATAATTTTTACTGGGTGCACTCGATATTTTAAATA,9.68
16,TATAAAATAAAAAATATATATATGTATATATATATA [TGCATGCA_negctrl_site163],8.86
17,ATTATTTTATATACATGTACATATTATATATAAAAG [XGTACX_site2735],6.56
18,TATAAGTGCTCAACGGTGCATTTATAGAAGTTAAAC,10
19,GGTTTACCCTATAAATGTACTCATAAATTATATATA [XGTACX_site5771],6.16
20,ATACGAAATAGAAACACACATACAATAAATAAATAT [CACACA_site2017],6.83
21,TGTTCAGTATGGCACACACACAACAAAATAAAAAAA [CACACA_site4368],6.65
22,ATAAATATGGCAGTACGTACGTATATTCATATTCAT [XGTACX_site8042],6.29
23,ATTAAAAAAAAAAAAAAAAAACAAAAAAAAAAAAAA [CACACA_negctrl_site1187],5.88

row,Sequence,gcPBM binding intensity (ln)
1,AGTAGCAAATATTAAGTGCATATTATATAATGTGTA [GTGCAC_site9546],8.69
2,TTTTTTTTTTTTTTTTGTACATATACATATATATAT [XGTACX_site1981],8.09
3,AAAAAATATATATATATATATATGTAATATTTTTTT [XGTACX_negctrl_site439],6.68
4,TCAATGAAATTAATATGTACATATTTTTATATAGTA [XGTACX_site7955],6.37
5,TGGCAAAATAGGCACACACACATATACAGATATATT [CACACA_site4727],6.67
6,AAAACTATAAAAATTTTACACACTGTTTTTAAATAA [CACACA_site3667],6.55
7,TATATTATAATATTCACACACTAACGTAAATCATTG [CACACA_site7318],6.58
8,ATGGATTATTTTTAAACATGCAGTAGTGATGAAAAA [TGCATGCA_site346],6.42
9,AAAAAAAACATACATACACACACATAAATATATATA [CACACA_site8864],7.17
10,GTTCTTTCAAATTATACACACCAAAAAAAAAAAAAA [CACACA_site5660],6.62
11,TGATCAAGTAAGAAAAGTACAAAAAAAGTAAAAAAT [XGTACX_site6529],6.68
12,GATATGTTTTATTATGTTGATGATAACAGGTAGTTT [CACACA_negctrl_site356],6.48
13,ATAAGTTTTTATTTTCTGCACTGTCGAATAATAGTT,6.88
14,GCGTGTGTACAATGAGTGCATATCTAAAGGGAAGAT,9.43
15,CGGCACATTCTATATACACACATATAAATATATACA [CACACA_site566],6.97
16,TACAATTCGTAATACACACACATATAAATAAATATT [CACACA_site7720],6.82
17,TGCGGAAATAAGTGCACACATAGATATATGTATTTT [CACACA_site3689],9.48
18,ATATATATTAATAATGCATGTGATATAAATTAATAT [TGCATGCA_site930],6.75
19,ATATTATATATGTATAGTACATATTATAAGAAAAAT [XGTACX_site3457],6.45
20,ATCTATATCTATAATACACACATCATAAAATATGTA [CACACA_site7230],6.7
21,TATTAAATATATATTACATGCAAAAAAAAAAAACAA [TGCATGCA_site705],6.89
22,AATATACAAATAAAGGTGCGAGATATTTTTACTTTT,6.56
